# ChEMBL document CHEMBL4888484, “Replenishing the malaria drug discovery pipeline: Screening and hit evaluation of the MMV Hit Generation Library 1 (HGL1) against asexual blood stage Plasmodium falciparum ,using a nano luciferase reporter read-out” (2022)
# In all, about 150,000 compounds went through this assay and about 540 (0.36%) showed an effect of 50% or more. The list shows a part of the results.
# Tested on: Plasmodium falciparum
# Assay: Primary screen in NF54 nanoGlo assay, in single point, at 2uM, 72h; a lower Z score goes with more inhibition
# Format: functional, Erythrocyte
# Details: timepoint 72 hour
SMILES,% Inhibition,Z score
CCC[C@@]1(C2CCN(C(=O)c3ccccc3OC)CC2)NC(=O)N(Cc2ccco2)C1=O,9%,-1.27
C#Cc1ccc(C(=O)N2CCC3CCC(O)C2C3)cc1 (stereo not drawn),8%,-1.54
CC1(C)CCC(NC(=O)c2cnn3c2CCC3)(C(N)=O)CC1,0%,-0.04
CCc1nc(-c2cccc(C(=O)N(C)C3CCN(C)CC3)c2)ccc1C,3%,-0.49
Cc1ccc(OCC2c3ccsc3CCN2C(=O)CN(CC2CCCO2)C(=O)Nc2cccc(Cl)c2)c(C)c1 (stereo not drawn),-10%,1.33
Nc1nc(CCCn2cnc3nccnc3c2=O)cs1,-9%,0.85
CC1(C)NC(=O)N(CCCN2CC[C@@](O)(C(F)(F)F)C2)C1=O,13%,-1.48
CCCNS(=O)(=O)NC[C@@H](c1ccc(Cl)cc1)n1ccnc1,-6%,0.94
CN(C)c1ccc(NC(=O)OCC(F)(F)F)cn1,-17%,3.28
Cc1cc(C(C)(C)C)oc1C(=O)NCCNC(=O)c1oc(C(C)(C)C)cc1C,-9%,1.2
O[C@@H]1C[C@H]2CN(Cc3ccccc3OCCCn3ccnc3)C[C@H]2C[C@@H]1O,-5%,0.56
COc1cccc2c(O)c(C(=O)NCCCc3nc4ccccc4n3C(C)C)cnc12,-6%,1.01
Fc1cnccc1NCCCOC1CCCCC1,-14%,2.27
Cc1noc(COC(=O)c2cccc(OCc3ccc(F)cc3)c2)n1,-3%,0.68
C[C@@H](Cc1ccco1)NC(=O)c1ccco1,-13%,1.22
N#CCN1CCC[C@H](NCC(F)(F)F)C1,-4%,0.53
CCn1c(CC2CCNCC2)nn(Cc2cccc(F)c2F)c1=O,-4%,0.77
CN(Cc1nc2ccccc2c(=O)[nH]1)c1ccc(F)cc1,-15%,2.75
Cc1cc(C(=O)N[C@H]2CCS(=O)(=O)C(C)(C)C2)no1,-6%,0.58
Cc1cccc(C)c1Oc1ccccc1NC(=O)C(=O)Nc1ccnn1C(C)C,-8%,1.54
CCS(=O)(=O)CC(=O)N1CC(C)(C)N(C)c2cc(Br)ccc21,-17%,1.69

SMILES,% Inhibition,Z score
Cc1cc(C(=O)N[C@@H]2C[C@H](COc3ccc(S(C)(=O)=O)cc3)[C@@H](O)[C@H]2O)no1,-15%,2.73
N#Cc1ccc(N[C@@H]2c3ccccc3C[C@@H]2O)c(F)c1,-6%,0.93
COc1cnc(CN2CCN(c3ncccn3)CC2)cc1O,6%,-1.13
CC1CCN(Cc2ccc(C(=O)NCCc3nccn3C)o2)CC1,-16%,1.57
Cc1ccc(CCNC(=O)c2cc(-c3cnn(-c4ccc(C(C)C)cc4)c3C)nc3ccccc23)cc1,-6%,0.67
CC(C)[C@H](NS(=O)(=O)CC1CCCC1)c1ncnn1C,2%,-0.27
NC(=O)c1cc2cc(NC(=O)c3ccccc3Cl)ccc2n1Cc1cccc(F)c1,-3%,0.33
COc1ccc(C(=O)N2c3ccccc3N=C(c3ccc(Br)cc3)C[C@H]2c2ccccc2)cc1,3%,-0.3
CN(CC(F)(F)F)C(=O)Cn1cnc2c(c1=O)CCC2,-6%,1.11
CN(C(=O)C[C@@H](c1ccc(Cl)c(Cl)c1)N1CCOCC1)C(C1CC1)C1CC1,-35%,4.13
CCc1nc(C)c(CN2Cc3cc(C)ccc3O[C@H](c3ccsc3)C2)[nH]1,-8%,1.05
O=C1N[C@H](c2ccccc2)C(=O)N2CCC[C@H]12,0%,-0.04
Cc1cc([C@@H](C#N)c2ccc(Cl)cc2)c(Cl)cc1NC(=O)CN1C(=O)c2ccccc2C1=O,-3%,0.52
O=C(NCCc1cccs1)C1CCN(C(=O)c2ccns2)CC1,-3%,0.64
Cc1nn(C)c(C)c1S(=O)(=O)N1CCCN(C(=O)[C@H]2CCOC2)CC1,-9%,1.35
CC(=O)N(CCc1noc(C(C)C)n1)[C@H]1CCN(S(=O)(=O)Cc2cccc(F)c2)C1,-5%,0.59
Cc1nn(-c2ccccc2)c2sc(C(=O)N3CCNC(=O)C3)cc12,-9%,0.74
Cc1cc(C)n(Cc2cccc(C(F)(F)F)c2)c1C(=O)NCc1cccc(C(F)(F)F)c1,-13%,1.13
Cc1nnc(CNC(=O)Nc2cccc3c4c(oc23)CCCC4)o1,49%,-6.67
CC(C)(C)N1CC[C@H]1c1nc(-c2ccncc2)no1,-6%,1.05
FC(F)(F)c1cc(N2CCC(COc3ccccn3)CC2)nc(-c2ccncc2)n1,2%,-0.41

SMILES,% Inhibition,Z score
CN1CCN(C(=O)c2ccc(Cn3ccnn3)o2)Cc2cccnc21,6%,-0.96
Cc1nnc(NC(=O)c2cn(Cc3cccc(F)c3)nc2OCc2cccc(F)c2)s1,-24%,2.72
O=C(NCCC1Cc2ccccc2C1)N[C@H]1CC[C@H](O)CC1,7%,-0.78
O=C1C[C@@H](C(=O)Nc2cccc(F)c2)n2nc(-c3ccccc3)cc2N1,-3%,0.57
COc1ccccc1CCNC(=O)c1ncoc1-c1ccc(C)s1,-3%,0.29
CCn1c(C)nnc1CNC(C)(C)c1ncc(C)s1,-11%,1.26
Cc1cccc(NC(=O)[C@@H](C#N)C(=O)CC(C)C)c1,-12%,1.12
O=C(NCc1nc(-c2ncccn2)no1)[C@H]1CCCN(C2CCCC2)C1,-1%,0.16
Cc1cc(C(=O)Cn2cnc(C#N)n2)c(C)n1-c1cccc(S(=O)(=O)N2CCOCC2)c1,-17%,2.46
O=C(Nc1ccc2c(c1)OCO2)c1cc(Cl)c2c(c1)OCCCO2,-13%,1.73
Cc1nc(Oc2cccc3c2OC(C)(C)C3)sc1C(=O)O,-7%,0.99
Cc1nnc(O)nc1Nc1cccc(Br)c1,-4%,0.59
N[C@H]1CCN(C(=O)c2ccccc2C(=O)c2ccc(F)cc2)C1,-2%,0.23
Cc1cc(N2CCN([C@H]3CCS(=O)(=O)C3)CC2)n2nc(C)cc2n1,-8%,1.03
Cc1ccc(C(=O)NCc2ccnc(-n3ccnc3C)c2)s1,-10%,1.4
Cc1c(CCNC(=O)N2CCC[C@H](O)C2)c2cccc3c2n1CCC3,-6%,0.99
Cn1ncc(C2CCC2)c1CNc1ncnc2ccsc12,-4%,0.89
CC[C@@H](C(=O)NC)n1ccc2cc(S(=O)(=O)N3CCCCC3)ccc21,41%,-5.88
C=C(C)CN(CC)C(=O)C(C)NCC1CN(C)CCO1 (stereo not drawn),-4%,0.49
O=C(NCc1cc2n(n1)CCNC2)c1cc(Cl)c[nH]1,-13%,1.52
Cn1nncc1NC(=O)c1nnc(C(C)(C)C)s1,6%,-0.76

SMILES,% Inhibition,Z score
Cc1c(Cl)cccc1S(=O)(=O)N1CCN(C)Cc2ccccc21,-3%,0.48
Cc1nc2cc(Cc3ncnn3CC(F)(F)F)ccc2[nH]1,-12%,1.59
CC(=O)N1CCC(C(=O)Nc2ccc(Nc3ccccc3)cc2)CC1,-6%,0.91
CC(C)Cn1ccnc1NC(=O)c1ccc(CCN(C)C)cc1,-7%,0.85
Cc1ccc(CS(=O)(=O)N2CCC3CCN(C)CC32)c(F)c1 (stereo not drawn),-7%,1.13
COc1ccc(OCc2nc(C(=O)N[C@H]3CCNC3=O)co2)cc1,9%,-1.53
CC(C)Cn1c(=O)c(-c2ccc(C(=O)N3CCN(c4ccccc4)CC3)cc2)nc2ccccc21,11%,-1.11
CC1CC1C(=O)N1CCCC(CN2CCCCCC2)C1 (stereo not drawn),-10%,1.25
CCn1ncc(-c2ccnc3cc(C(=O)Nc4cccc(Cl)c4C)nn23)c1C,27%,-3.67
CC(C(=O)O)N1CCOC(c2ccsc2)C1 (stereo not drawn),-10%,1.1
Cc1csc(NC(=O)[C@H]2CC2(F)F)n1,-1%,0.18
O=C(C[C@H]1COc2ccc(Cl)cc2N1Cc1ccc(F)cc1)NC1CCCC1,-15%,2.17
O=C(NC[C@H]1CCC[C@@H]1O)c1cc(F)c[nH]1,7%,-0.56
Cc1c(C#N)c(NC(=O)CN2CCCCC2)n(Cc2ccco2)c1C,-3%,0.3
CN(C)Cc1nc(C(=O)NCc2cccnc2N2CCN(C)CC2)cs1,-8%,1.56
Cc1ccc(-c2ocnc2C(=O)Nc2ccc(NC(=O)c3ccccc3)nc2)cc1,-8%,0.85
OCCOc1ccccc1CN[C@H]1CCc2cc(Cl)ccc21,-14%,1.2
O=S(=O)(CC[C@H]1CCCO1)N1CCc2c(F)cc(F)cc21,0%,0.01
CC(C)O[C@H]1C[C@@H](NC(=O)c2ccc(C(F)(F)F)c(=O)[nH]2)C1,13%,-1.51
CC[C@]1(CO)CCCN(c2nnc(C(C)C)s2)C1,5%,-0.5
COc1ccccc1C(=O)NC(C(=O)NCC1CN(C)CCO1)C(C)C (stereo not drawn),4%,-0.64
